Experimental data taken from PubChem BioAssay (Tox21).
Where “and” joins values, the source holds several entries; their conditions need not be identical. Equal entries are not always repeated. Inconclusive results, whose numbers are uncertain, are shown with a selection of clear calls. A potency beside an inconclusive call is a rough fit, not a confirmed value. Calls of active or inactive are those of the source. Unless noted, the call rests on the fitted dose curve; in most records, active means well fitted curve in the direction sought with a large enough effect in the repeat runs; inconclusive means weak or mixed curves; inactive means no such curve, though single readings can be large; an effect the other way counts as inactive or inconclusive.

How the values were obtained:
[1] = target: Progesterone receptor (Homo sapiens) (UniProt P06401); experiment: qHTS assay to identify small molecule agonists of the progesterone receptor (PR) signaling pathway (AID 1346784; calls by dose curve; further: nearly all actives have a fitted effect of over 30% in size; on activation: on the % scale 0 is the no-effect control and ±100 the full control effect); details: PR-UAS-bla HEK293T, beta-lactamase FRET ratio, 16 h
UniProt P06401, sequence (P06401 whole entry, looked up): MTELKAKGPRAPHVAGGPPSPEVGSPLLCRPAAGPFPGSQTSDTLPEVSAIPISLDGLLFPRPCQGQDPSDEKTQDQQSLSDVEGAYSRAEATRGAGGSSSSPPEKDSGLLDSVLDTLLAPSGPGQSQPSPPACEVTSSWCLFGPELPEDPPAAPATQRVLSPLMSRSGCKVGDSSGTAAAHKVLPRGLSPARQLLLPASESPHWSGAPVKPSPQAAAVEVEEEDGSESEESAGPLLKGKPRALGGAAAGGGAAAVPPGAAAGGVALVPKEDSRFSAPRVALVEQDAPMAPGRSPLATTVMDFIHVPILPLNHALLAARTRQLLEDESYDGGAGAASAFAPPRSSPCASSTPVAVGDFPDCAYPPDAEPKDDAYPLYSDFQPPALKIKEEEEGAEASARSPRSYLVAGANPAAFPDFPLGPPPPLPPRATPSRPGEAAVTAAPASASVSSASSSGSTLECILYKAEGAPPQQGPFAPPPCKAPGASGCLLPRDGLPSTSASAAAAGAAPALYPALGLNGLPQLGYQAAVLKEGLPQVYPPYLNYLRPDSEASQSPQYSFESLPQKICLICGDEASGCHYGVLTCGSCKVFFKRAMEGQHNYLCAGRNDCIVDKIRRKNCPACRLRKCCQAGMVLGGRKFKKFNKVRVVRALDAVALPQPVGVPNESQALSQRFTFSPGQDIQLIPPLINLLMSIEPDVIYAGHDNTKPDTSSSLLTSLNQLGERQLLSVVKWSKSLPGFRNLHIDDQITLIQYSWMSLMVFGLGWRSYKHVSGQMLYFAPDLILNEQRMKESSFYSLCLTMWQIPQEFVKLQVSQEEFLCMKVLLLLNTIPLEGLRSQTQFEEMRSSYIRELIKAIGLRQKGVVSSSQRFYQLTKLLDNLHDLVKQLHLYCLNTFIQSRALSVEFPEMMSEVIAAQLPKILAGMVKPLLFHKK
Procedure, shortened: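 Cells (PR-UAS-bla HEK 293T, GripTite) were plated in assay medium containing 2% charcoal-stripped FBS and incubated 6 hr. Test compounds in DMSO were added for 16 hr at 37C. FRET substrate was then loaded for 2 hr at room temperature before fluorescence reading.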

[2] = target: Progesterone receptor (Homo sapiens) (UniProt P06401); experiment: qHTS assay to identify small molecule antagonists of the progesterone receptor (PR) signaling pathway (AID 1346795; active means well fitted inhibition curve with a large enough effect in the signal ratio in the repeat runs, not every such curve was filed as active; inconclusive means weak or mixed curves; the % refers to the signal ratio; on activity change, negative = inhibition: on the % scale 0 is the no-effect control and ±100 the full control effect); details: PR-UAS-bla HEK293T, beta-lactamase FRET ratio, 16 h; activity change, negative = inhibition: at 92.4 µM (top of the series) unless noted
Procedure, shortened: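 Antagonist mode: compounds tested against 1 nM (final) promegestone stimulation in HEK293T cells expressing PR-UAS-bla reporter, 16 hr at 37C, 5% CO2; beta-lactamase activity detected via B/G FRET substrate after 2 hr at room temperature.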

[3] = qHTS assay to identify small molecule antagonists of the progesterone receptor (PR) signaling pathway - cell viability counter screen (AID 1346798); further: nearly all actives have a fitted effect of over 50% in size
Procedure, shortened: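 Counter screen for cytotoxicity: viability of PR-UAS-bla HEK293T cells was measured with CellTiter-Glo luminescence following 16 hr compound exposure in the presence of R5020.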

[4] = qHTS assay to identify small molecule agonists of the progesterone receptor (PR) signaling pathway - cell viability counter screen (AID 1346799; calls by dose curve; further: nearly all actives have a fitted effect of over 45% in size)
Procedure, shortened: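 Cells (PR-UAS-bla HEK293T) are plated at 3,000/well in 2% charcoal-stripped FBS medium, rested 6 hr, dosed and incubated 16 hr at 37C. CellTiter-Glo is then added and luminescence measured after 30 min at room temperature.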

[5] = qHTS assay to identify small molecule agonists of the TGF-beta/Smad signaling pathway - cell viability counter screen (AID 1346829); further: nearly all actives have a fitted effect of over 45% in size
Procedure, shortened: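 After overnight seating at 37 C and 5% CO2, reporter cells got compounds for 5 hr and FRET substrate for 2 hr; cell viability then came from CellTiter-Glo luminescence.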

[6] = qHTS assay to identify small molecule agonists of the TGF-beta/Smad signaling pathway (AID 1346859; active means well fitted activation curve with a large enough effect in the signal ratio in the repeat runs, not every such curve was filed as active; inconclusive means weak or mixed curves; the % refers to the signal ratio); details: SBE-bla HEK293T, TGF-beta/Smad beta-lactamase reporter, 5 h; activation: at 76.8 µM (top of the series)
Procedure, shortened: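 Reporter line: HEK 293T with stably integrated SBE-controlled beta-lactamase. Compound exposure lasts 5 hr at 37 C and 5% CO2; substrate loading follows for 2 hr at room temperature, with emission read at 460 and 530 nm.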

[7] = qHTS assay to identify small molecule antagonists of the TGF-beta/Smad signaling pathway (AID 1346924; active means well fitted inhibition curve with a large enough effect in the signal ratio in the repeat runs, not every such curve was filed as active; inconclusive means weak or mixed curves; the % refers to the signal ratio); details: SBE-bla HEK293T, TGF-beta/Smad reporter, beta-lactamase ratio
Procedure, shortened: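 Read-out was FRET-substrate fluorescence (405 nm excitation; 460 and 530 nm emission) after 2 h at room temperature. Before that, cells carrying a Smad-binding-element beta-lactamase reporter in HEK 293T had been stimulated 5 h at 37 C with TGF-beta1 (0.25 ng/mL addition solution) in the presence of test compound.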

[8] = Human pregnane X receptor (PXR) small molecule agonists, qHTS cell viability counter screen (AID 1346977); further: nearly all actives have a fitted effect of over 50% in size
Procedure, shortened: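 Cytotoxicity counter screen run in the same wells as the PXR luciferase assay, using PXR-Luc HepG2 cells in charcoal-stripped serum medium. Viability: CellTiter-Fluor fluorescence after 24hr compound treatment.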

[9] = qHTS assay to identify small molecule antagonists of the TGF-beta/Smad signaling pathway - cell viability counter screen (AID 1346824); further: nearly all actives have a fitted effect of over 50% in size
Procedure, shortened: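 SBE-bla HEK 293T cells were plated overnight at 37 C, then given compounds in DMSO plus TGF-beta1 (added as 0.25 ng/mL solution) for 5 hr. After the bla read, CellTiter-Glo was added to the same wells and luminescence read after 30 min at room temperature.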

[10] = activation: at 92.4 µM (top of the series) unless noted
[11] = activity, negative = inhibition: at 76.8 µM (top of the series) unless noted
Potency means the concentration at half of the fitted maximal effect; tags describe the fitted curve by direction and shape or compound fluorescence and quenching.

In the case of `COC(=O)c1c(Cl)c(Cl)c(C(=O)OC)c(Cl)c1Cl`, the Potency [1, 10] is reported as inconclusive: 54.5 µM [activator, partial curve], the Potency [2] is reported as inconclusive: 19.3 µM and the activity change, negative = inhibition [2] is reported as inconclusive: -20.6%. The Potency [3] was inconclusive: 15.4 µM [rising, partial curve, poor fit], the Potency [4] was inconclusive: 0.217 µM [rising, full curve, poor fit] and the Potency [5] was inconclusive: 1.55 µM [rising, partial curve, poor fit].
For `CCc1cc(Cc2cc(CC)c(N)c(CC)c2)cc(CC)c1N`, the Potency [1, 10] was inconclusive: 77 µM [inhibitor, partial curve, poor fit], the Potency [2] was inconclusive: 19.3 µM and the Potency [3] was active: 68.6 µM. For the same compound, the Potency [4] was active: 54.5 µM.
With `O=C(c1ccc(OCCN2CCCCC2)cc1)c1c(-c2ccc(O)cc2)sc2cc(O)ccc12` the Potency [1, 10] was inconclusive: 68.7 µM [cytotoxic, single point], the activation ([1]; at 42.5 µM (top of the series)) was inconclusive: -10.3% and the activation ([1]; at 92.4 µM (top of the series)) was inconclusive: -9.28%. For the same compound, the Potency [3] was active: 61.2 µM and active: 61.1 µM and active: 26.6 µM, the Potency [4] was active: 48.6 µM and active: 68.6 µM and active: 29.8 µM and the Potency [5] was inconclusive: 55 µM [cytotoxic, single point]. The Potency [6] was inconclusive: 38.9 µM [rising, partial curve] and inconclusive: 21.9 µM [rising, partial curve] and inconclusive: 12 µM [rising, partial curve], the Potency [7, 11] was inconclusive: 15.1 µM [rising, partial curve, poor fit] and the activity, negative = inhibition [7, 11] was inconclusive: -20% and inconclusive: -2.78%.
In the case of `CN(C)C(=S)SC(=S)N(C)C`, the Potency [1, 10] is reported as inconclusive: 11.9 µM [cytotoxic, partial curve], the activation [1, 10] is reported as inconclusive: -26.4% and the Potency [3] is reported as active: 994 nM and active: 969 nM and active: 750 nM. The Potency [4] was active: 2.22 µM and active: 1.22 µM and active: 266 nM, the activity, negative = inhibition ([7]; at 35.3 µM (top of the series)) was inconclusive: 0.213% and the activity, negative = inhibition ([7]; at 76.8 µM (top of the series)) was inconclusive: -4.99% and inconclusive: 3.59%. For the same compound, the Potency [8] was active: 7.08 µM and active: 545 nM and active: 2.66 µM.
For `CC1=CC(=O)c2ccccc2C1=O`, the activation [1, 10] was inconclusive: 12.5% [at 42.5 µM], the Potency [2] was inconclusive: 61.1 µM and the activity change, negative = inhibition [2] was inconclusive: -30.3% [at 42.5 µM]. For the same compound, the Potency [4] was inconclusive: 21.7 µM [cytotoxic, partial curve, poor fit], the Potency [9] was active: 49 µM and inconclusive: 26.8 µM [cytotoxic, single point] and the Potency [5] was active: 54.9 µM and inconclusive: 26.8 µM [cytotoxic, single point]. The Potency [6] was inconclusive: 54.9 µM [rising, single point], the Potency [7, 11] was inconclusive: 30.9 µM [rising, partial curve] and the Potency [8] was inconclusive: 33.5 µM [cytotoxic].
For `O=C(Nc1ccccc1)c1cc(Cl)ccc1O`, the Potency [1, 10] was inconclusive: 13.7 µM [cytotoxic, partial curve], the Potency [2] was active: 24.3 µM and the Potency [3] was inconclusive: 43.3 µM [cytotoxic, partial curve, poor fit]. For the same compound, the Potency [4] was inconclusive: 10.9 µM [rising, partial curve], the Potency [9] was inconclusive: 5.49 µM [cytotoxic, full curve] and the Potency [5] was inconclusive: 13.8 µM [cytotoxic, full curve].
With `CC(=O)N1CCN(c2ccc(OC[C@H]3CO[C@](Cn4ccnc4)(c4ccc(Cl)cc4Cl)O3)cc2)CC1` the Potency [1, 10] was inconclusive: 1.54 µM [cytotoxic, partial curve, poor fit], the Potency [2] was active: 13.7 µM and the Potency [3] was active: 30.6 µM. The Potency [4] was active: 30.6 µM, the Potency [9] was inconclusive: 54.9 µM [cytotoxic, single point] and the Potency [5] was inconclusive: 54.9 µM [cytotoxic, single point].
In the case of `Cc1ccc(S(=O)(=O)Oc2ccc(N=Nc3ccc(-c4ccc(N=Nc5c(O)ccc6cc(S(=O)(=O)O)cc(S(=O)(=O)O)c56)c(C)c4)cc3C)cc2)cc1`, the activation [1, 10] is reported as inconclusive: -2.48%, the activation ([1]; at 42.5 µM (top of the series)) is reported as inactive: -5.39% and the Potency [2] is reported as inconclusive: 54.7 µM [falling, partial curve]. For the same compound, the activity change, negative = inhibition [2] was inconclusive: -14.8% [at 42.5 µM], the activity, negative = inhibition ([7]; at 35.3 µM (top of the series)) was inconclusive: -15.7% and the activity, negative = inhibition ([7]; at 76.8 µM (top of the series)) was inconclusive: -26.8%. The Potency [8] was active: 11.2 µM and active: 8.92 µM.
